# Results: the supplement of paper PMC7826260
# The other results are listed elsewhere or left out. Viral Rep nickase domains cut single-stranded DNA in vitro for 1 h at 37 °C with 3 µM enzyme; only the middle of the 90-letter strands is printed. Values are log2 of uncut reads against the no-enzyme pool; strong cutting gives strongly negative numbers. There is no active / inactive call. Counts are relative to all reads, so uncut sequences can rise above 0 when many others are cut.
# Tests used:
# Experiment in all cases: uncleaved DNA left, log2 of reads against the no-enzyme library (log2 ratio); higher = less cleavage (more negative = more Rep cleavage of the k-mer); sequences stand for … in CTCGTCCG…ACCGGAGA
# [1] = tested on: T1, Rep nickase domain of Muscovy duck circovirus
# T1 sequence (Rep 1-111, printed without the tag): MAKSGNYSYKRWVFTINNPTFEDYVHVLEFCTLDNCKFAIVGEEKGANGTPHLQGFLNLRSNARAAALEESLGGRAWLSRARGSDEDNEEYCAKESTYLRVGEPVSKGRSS
# Procedure: (§1)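 A pool of 90-nt single-stranded DNAs with seven random bases just before the constant AC of the nick site (name = the seven bases) was cut by 3 µM recombinant His6-SUMO-tagged Rep nickase domain (300 nM DNA, 50 mM HEPES pH 8.0, 50 mM NaCl, 1 mM MnCl2, 1 h, 37 °C, three replicates). Uncut DNA was amplified and sequenced.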
# [2] = tested on: T2, Rep nickase domain of banana bunchy top virus
# T2 sequence (Rep 1-94, printed without the tag): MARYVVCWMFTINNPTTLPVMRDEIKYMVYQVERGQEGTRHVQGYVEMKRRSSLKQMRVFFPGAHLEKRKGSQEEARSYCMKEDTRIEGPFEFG
# Procedure: as §1
# [3] = tested on: T3, Rep nickase domain of cabbage leaf curl virus
# T3 sequence (Rep 1-116, printed without the tag): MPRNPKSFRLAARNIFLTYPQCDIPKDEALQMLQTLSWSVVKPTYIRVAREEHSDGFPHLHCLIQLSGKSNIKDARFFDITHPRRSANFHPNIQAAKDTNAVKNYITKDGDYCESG
# Procedure: as §1
# [4] = tested on: T4, Rep nickase domain of chickpea chlorotic dwarf virus
# T4 sequence (Rep 1-124, printed without the tag): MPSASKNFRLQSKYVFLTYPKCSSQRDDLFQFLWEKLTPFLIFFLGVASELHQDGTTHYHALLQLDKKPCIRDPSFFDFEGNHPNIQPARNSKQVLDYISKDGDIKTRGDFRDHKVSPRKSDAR
# Procedure: as §1
# [5] = tested on: T5, Rep nickase domain of faba bean necrotic yellows virus
# T5 sequence (Rep 1-98, printed without the tag): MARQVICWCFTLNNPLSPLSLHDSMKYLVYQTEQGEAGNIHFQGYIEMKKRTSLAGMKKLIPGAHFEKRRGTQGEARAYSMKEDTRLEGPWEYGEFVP
# Procedure: as §1
# [6] = tested on: T6, Rep nickase domain of maize striate mosaic virus
# T6 sequence (Rep 1-117, printed without the tag): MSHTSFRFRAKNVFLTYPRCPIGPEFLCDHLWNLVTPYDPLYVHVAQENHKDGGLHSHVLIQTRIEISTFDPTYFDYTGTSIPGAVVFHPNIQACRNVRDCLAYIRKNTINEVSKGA
# Procedure: as §1
# [7] = tested on: T7, Rep nickase domain of porcine circovirus 2
# T7 sequence (Rep 2-116, printed without the tag): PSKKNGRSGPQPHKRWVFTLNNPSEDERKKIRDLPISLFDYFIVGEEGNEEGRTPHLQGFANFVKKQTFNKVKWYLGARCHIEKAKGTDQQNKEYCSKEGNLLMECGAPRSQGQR
# Procedure: as §1
# [8] = tested on: T8, Rep nickase domain of tomato golden mosaic virus
# T8 sequence (Rep 1-124, printed without the tag): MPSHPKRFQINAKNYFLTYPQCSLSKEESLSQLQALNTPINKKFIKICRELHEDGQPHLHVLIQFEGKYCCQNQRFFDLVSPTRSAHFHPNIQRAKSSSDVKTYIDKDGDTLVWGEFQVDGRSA
# Procedure: as §1
# [9] = tested on: T9, Rep nickase domain of tomato yellow leaf curl virus
# T9 sequence (Rep 1-136, printed without the tag): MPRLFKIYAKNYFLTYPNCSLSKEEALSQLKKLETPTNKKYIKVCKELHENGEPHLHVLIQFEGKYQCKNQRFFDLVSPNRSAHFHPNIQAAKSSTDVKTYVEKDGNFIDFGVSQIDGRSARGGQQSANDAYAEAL
# Procedure: as §1
# [10] = tested on: T10, Rep nickase domain of wheat dwarf virus
# T10 sequence (Rep 1-137, printed without the tag): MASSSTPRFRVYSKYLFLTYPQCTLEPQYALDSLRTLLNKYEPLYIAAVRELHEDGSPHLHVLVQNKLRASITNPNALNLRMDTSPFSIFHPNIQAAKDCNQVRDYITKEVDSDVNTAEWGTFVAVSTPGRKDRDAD
# Procedure: as §1
Sequence,uncleaved DNA left (log2) [1],uncleaved DNA left (log2) [2],uncleaved DNA left (log2) [3],uncleaved DNA left (log2) [4],uncleaved DNA left (log2) [5],uncleaved DNA left (log2) [6],uncleaved DNA left (log2) [7],uncleaved DNA left (log2) [8],uncleaved DNA left (log2) [9],uncleaved DNA left (log2) [10]
ATTCATT,-3.46,-3.08,-0.227,-2.45,-0.0748,-0.676,-3.84,-0.101,0.0289,-0.0977
GGGCGTG,-0.122,0.0615,0.637,1.57,-0.063,2,0.148,0.033,-0.0827,0.169
TCATACG,-0.0743,-0.0124,-0.95,-0.682,-0.00299,-1.18,0.0189,-0.0176,-0.112,-0.234
GAATCCC,0.0912,-0.0116,-1.45,-1.43,0.033,0.573,-2.03,-0.193,0.0863,-0.274
TACTACA,-1.93,-0.364,-1.93,-3.16,-0.248,-0.467,-3.51,-0.721,-0.047,-1.28
GCAGTGC,0.0285,-0.0605,-0.611,-0.285,0.117,-0.784,0.0711,0.00502,0.204,0.0181
GGATGAT,0.0206,0.21,0.722,1.67,0.0362,2.15,-0.0792,0.0053,0.0777,0.256
ATCCTAG,0.0186,-0.0845,-0.689,-0.598,0.0257,-1.02,0.275,-0.061,0.0444,-0.0342
AATCAAG,-0.0173,-0.0406,-0.909,-0.526,0.0133,-1.28,0.156,-0.0721,-0.0173,-0.175
AATATGG,0.0764,0.0112,-0.103,0.193,0.0585,-0.714,0.102,0.0528,-0.0298,0.0167
ACCAGAC,0.0136,-0.073,-0.0389,0.255,0.00883,-0.417,0.209,0.0889,0.031,-0.031
GCTTATA,0.0778,0.0634,0.0549,-0.0455,0.00943,0.476,-0.0247,-0.0132,0.00721,0.0767
GTCAAAC,0.0407,0.102,0.344,0.916,0.108,1.47,0.0795,0.144,0.0358,0.119
AGGTTGT,-0.0196,0.0453,0.0675,0.262,0.0089,0.362,-0.821,0.0506,0.0201,0.0418
TCGTGGA,0.0541,-0.126,0.176,0.027,-0.0836,-0.261,-0.219,-0.0245,-0.117,-0.0372
GCGAGCA,0.147,0.105,0.112,0.534,0.0839,0.127,-2,0.133,0.245,0.128
GTGCTTA,-0.0714,0.0274,0.311,0.721,-0.138,1.6,-0.00718,0.043,0.112,0.028
AAAATAA,0.0183,0.148,-0.183,-0.555,0.0269,-0.557,0.136,0.252,-0.0383,0.139
CCGCATG,0.13,-0.115,-0.432,-0.467,-0.138,-0.685,0.0863,0.13,-0.114,-0.161
CCCTACA,-0.0279,0.0785,-0.197,-2.31,0.163,-0.477,-0.0185,0.0528,0.153,0.00166

Sequence,uncleaved DNA left (log2) [1],uncleaved DNA left (log2) [2],uncleaved DNA left (log2) [3],uncleaved DNA left (log2) [4],uncleaved DNA left (log2) [5],uncleaved DNA left (log2) [6],uncleaved DNA left (log2) [7],uncleaved DNA left (log2) [8],uncleaved DNA left (log2) [9],uncleaved DNA left (log2) [10]
TATTAGT,-3.96,-3.68,-2.34,-2.66,-0.506,-1.19,-3.59,-0.569,0.109,-0.763
GCCTTGT,-0.0358,-0.108,0.012,0.27,-0.0326,-0.274,-0.174,0.00783,0.0475,-0.152
TTCCGTT,-0.149,-0.201,-0.025,-1.03,-0.272,-0.269,-0.342,-0.311,-0.0514,-0.0513
ACTGCTT,0.0779,-0.0828,-0.269,-0.845,0.0151,-0.363,-0.338,0.0933,-0.00944,-0.152
GCCGCGG,-0.114,-0.108,0.0903,0.463,0.0545,0.323,0.108,0.0129,-0.0264,-0.0726
ACGCCTA,0.125,0.0977,-0.29,-0.805,0.0886,-0.37,-0.0249,0.14,0.00839,0.036
CCTCCAC,0.148,0.0504,-0.0807,-0.367,-0.00229,-0.625,0.178,-0.0345,0.0787,-0.051
TCAGGGC,0.0611,0.048,0.16,0.433,0.0785,-0.151,0.011,0.00587,0.0346,-0.000756
CCATGCG,-0.0368,-0.146,-0.239,1.32,-0.0856,0.876,0.0725,-0.151,-0.0741,-0.0665
CTCGTCA,-0.0757,-0.00527,0.018,-0.748,0.023,-0.465,-0.111,-0.00672,0.136,0.0279
CTTCCGC,0.0146,0.0227,-0.366,-0.721,-0.00194,-0.931,0.00836,-0.178,0.0498,-0.0619
GTGTTGC,-0.0377,-0.157,0.0388,0.406,-0.0411,0.443,-0.00409,-0.0222,-0.0518,-0.018
GACATCA,-0.00556,0.127,0.507,0.605,0.0646,1.38,0.109,0.0986,0.109,0.224
CGTGTAG,-0.131,-0.149,-0.698,-0.482,-0.00516,-1,-0.0498,-0.119,0.0164,-0.219
GGCAGGA,0.0655,0.0209,0.589,1.06,0.00982,1.28,0.138,-0.0374,0.0838,0.104
CGCGAAT,0.0229,-0.0253,-0.125,0.0627,-0.0145,-0.0819,-0.0689,-0.0582,-0.136,-0.0654
TGTTACC,-3.19,-0.387,-2.45,-2.24,-2.22,0.0345,-3.26,-2.43,-0.0713,-2.58
CACTCAA,0.0237,0.0731,-0.027,-1.02,-0.214,-0.623,-0.694,0.0272,-0.19,0.053
ACGCGGT,-0.0876,-0.0827,-0.542,-0.531,-0.115,-0.75,-0.0794,0.00485,-0.0618,-0.12
CCTAACC,-0.419,-0.178,-0.332,-1.83,-0.101,-0.769,-0.789,-0.0884,-0.111,-0.158

Sequence,uncleaved DNA left (log2) [1],uncleaved DNA left (log2) [2],uncleaved DNA left (log2) [3],uncleaved DNA left (log2) [4],uncleaved DNA left (log2) [5],uncleaved DNA left (log2) [6],uncleaved DNA left (log2) [7],uncleaved DNA left (log2) [8],uncleaved DNA left (log2) [9],uncleaved DNA left (log2) [10]
CCGGCTC,-0.0212,-0.144,-0.00289,-0.0677,-0.19,0.305,-0.0843,-0.138,-0.19,-0.476
AGTATAA,0.102,0.00436,-0.0205,-0.0506,-0.0201,-0.211,-0.861,0.0196,0.0318,0.0393
GCAGTTC,-0.102,-0.116,-0.0528,-0.122,-0.0146,-0.241,-0.0262,-0.0556,-0.0115,-0.065
TCATGTC,0.0746,-0.0481,-0.0739,-0.417,0.101,-1.03,0.0401,0.055,0.0255,0.0114
TGTCGCG,0.0679,-0.0141,-0.717,0.611,0.117,-0.632,0.151,-0.0552,-0.023,-0.138
GTGCAGC,-0.00814,-0.0953,0.17,0.563,-0.0566,0.934,-0.0787,-0.0365,-0.0431,-0.0542
TTTATAG,0.126,0.0501,-0.644,-0.7,0.168,-1.09,0.16,0.04,0.0258,-0.0532
GGTTTCG,0.119,0.0422,-0.676,-0.288,-0.0165,-0.545,0.223,-0.119,-0.00437,-0.114
TGCGGCT,0.057,-0.147,0.0149,0.282,-0.144,1.16,0.0971,0.0161,-0.119,-0.0282
GTAATAT,0.156,0.156,0.318,0.87,0.0414,1.84,0.187,0.202,0.112,0.0925
TGGGTTC,0.088,-0.0279,0.623,1.19,-0.0256,1.71,0.187,0.0782,0.0406,0.0345
ATCCTGG,0.0172,-0.136,-0.154,-0.185,-0.029,-0.772,0.158,0.0183,-0.0854,-0.138
CGAATGA,0.153,0.0828,0.157,0.733,0.0386,1.64,0.255,-0.00966,0.058,0.179
TTCGGTG,0.0868,-0.173,-0.536,-0.938,-0.207,-0.86,0.00234,0.0187,-0.102,-0.0962
GTGTTCG,-0.148,-0.187,-0.511,-0.446,-0.031,-0.696,-0.0388,-0.124,-0.174,-0.258
TTCAGGA,0.0748,0.00266,0.173,0.563,0.0596,-0.0276,0.138,0.0955,-0.0102,0.0658
ACCCGTA,0.135,0.0658,-0.0783,-0.584,0.198,-0.719,-0.00769,0.09,0.0715,0.014
CATAATG,-0.0209,-0.0278,-0.71,-0.812,0.0798,-1.25,0.0248,-0.142,-0.104,-0.227
ATGAAAA,0.0143,-0.0104,0.0615,0.0744,0.0255,-0.702,-0.0229,0.0578,-0.0766,0.0107
CCCATTA,-0.0964,-0.0257,-0.141,-1.26,-0.0499,-1.02,-0.00869,-0.00494,-0.0901,-0.114
